{"source": "PubChem BioAssay AID485297", "about": "(National Center for Advancing Translational Sciences (NCATS), 2010)", "note": "The campaign covered roughly 320,000 compounds. About 9,100 (2.8%) were called active. The inconclusive results got no clear call from the source; some entries with a clear call stand among them for comparison. Calls come from the whole dose curve; as a rule, active = well fitted activation curve with a large enough effect; inconclusive = small, poorly fitted or top-dose-only effect; inactive = no such curve, though single readings can be large or run the other way. No potency is given beside an inconclusive call; the fits are too rough. Potency is the fitted concentration of half-maximal effect; tags give direction and shape of the fitted curve."}
{"test": "qHTS Assay for Rab9 Promoter Activators; note: nearly all actives have a fitted effect of over 60% in size; for activation, negative = inhibition: % of control where 0% means no effect", "conditions": "Huh7 Rab9 promoter-luciferase reporter, luminescence, 24 h; series mostly up to 9.22 µM; activation, negative = inhibition: at the top concentration", "procedure,_shortened": "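Luminescence from Amplite-detected luciferase (10 minutes, ambient) reports Rab9 promoter activation. Before that, stable Rab9-luciferase Huh7 cells (1500/well, reduced-serum OP-MEM I plus 10% FBS) were exposed to compound for 24 hours at 37C.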"}
{"smiles": "NC(=O)c1ccc(NC(=O)c2cnc3ccccc3n2)cc1", "Potency": "active: 2.51 µM"}
{"smiles": "C=CCN1C(=NC(=O)CCCC(=O)O)SC2CS(=O)(=O)CC21", "note": "(centres undefined)", "activation, negative = inhibition": "inactive: -4%"}
{"smiles": "COc1cc(CC(NC(C)=O)C(=O)NC2CCN(c3nc(C)cc(C)c3C#N)CC2)cc(OC)c1", "note": "(centres undefined)", "activation, negative = inhibition": "inactive: 6.22%"}
{"smiles": "Cn1c(=N)n(CC(=O)c2ccc(Cl)c(Cl)c2)c2ccccc21", "Potency": "inconclusive [activator, partial curve]"}
{"smiles": "Cc1cccnc1NC(=S)Nc1ccc(Cl)c(Cl)c1", "Potency": "inconclusive [activator, single point]"}
{"smiles": "c1ccn2c(SCc3cn4ccsc4n3)nnc2c1", "Potency": "active: 2.51 µM"}
{"smiles": "CC1CCCN(c2oc(-c3cccc4ccccc34)nc2C#N)C1", "note": "(centres undefined)", "Potency": "inconclusive [activator, single point]"}
{"smiles": "CCCc1cc(C(=O)Nc2cc(Cl)ccc2O)no1", "Potency": "inconclusive [activator, single point]"}
{"smiles": "CC(C)NC(=O)c1cc(-c2ccco2)on1", "Potency": "inconclusive [activator, partial curve]"}
{"smiles": "O=C(Nc1ccccc1Cl)c1ccc2nc(N3CCOCC3)sc2c1", "Potency": "inconclusive [activator, partial curve]"}
{"smiles": "Cc1ccc(-n2nc(C)c(/C=N/NC(=O)c3cccs3)c2Cl)cc1", "Potency": "inconclusive [activator, partial curve]"}
{"smiles": "Cn1ccsc1=NC(=O)c1ccc(Cl)cc1", "Potency": "inconclusive [activator, partial curve]"}
{"smiles": "CN1c2ccsc2/C(=N/Nc2ccc(F)cc2)CS1(=O)=O", "Potency": "inconclusive [activator, single point]"}
{"smiles": "CCc1ccc2oc(-c3cccc(N)c3)nc2c1", "Potency": "active: 1.58 µM"}
{"smiles": "Cc1cc(C(=O)COc2ncnc3sccc23)c(C)n1C", "Potency": "inconclusive [activator, partial curve]"}
{"smiles": "Cc1ccccc1-c1nc(-c2cccnc2)no1", "Potency": "inconclusive [activator, single point]"}
{"smiles": "CCOc1ccc(NC(=O)c2ccccc2O)cc1", "Potency": "active: 1.58 µM"}
{"smiles": "CN(C)c1ccc(-c2nc3ccccn3c2/N=C/c2ccc(Br)cc2)cc1", "Potency": "inconclusive [activator, full curve]"}
{"smiles": "O=C(/C=C/N1CCOCC1)c1ccc(-c2ccccc2)cc1", "Potency": "active: 3.16 µM"}
{"smiles": "O=c1[nH]cnc2sc(-c3ccccc3)cc12", "Potency": "inconclusive [activator, single point]"}
{"smiles": "O=C1/C(=C/c2cccnc2)CCc2c1[nH]c1ccccc21", "Potency": "active: 3.16 µM"}
{"smiles": "COc1cccc(C(=O)Nc2ccc(Cl)c(C(F)(F)F)c2)c1", "Potency": "inconclusive [activator, single point]"}
{"smiles": "Cc1cc(C)c2nc(N3CCCC(C(=O)NC4CCCC4)C3)sc2c1", "note": "(centres undefined)", "Potency": "inconclusive [activator, partial curve]"}
{"smiles": "COc1ccc(N2CCN(C(=O)c3cc4c(s3)-c3ccccc3OC4)CC2)cc1", "Potency": "inconclusive [activator, partial curve]"}
{"smiles": "Nc1nnc(SCC(=O)c2ccc([N+](=O)[O-])cc2)s1", "Potency": "inconclusive [activator, single point]"}
{"smiles": "CC(C)c1ccc(Nc2ncccc2C#N)cc1", "Potency": "active: 3.55 µM"}
{"smiles": "COc1ccc(-c2csc(NC(=O)CSc3n[nH]c(C)n3)n2)cc1", "Potency": "inconclusive [activator, partial curve]"}
{"smiles": "CC(C)(C)c1cc(OC(=O)c2ccccc2F)ccc1O", "activation, negative = inhibition": "inactive: -1.7%"}
{"smiles": "O=C(NCC(c1ccccc1Cl)N1CCCC1)c1ccc(N2CCCC2=O)cc1", "note": "(centres undefined)", "Potency": "inconclusive [activator, partial curve]"}
{"smiles": "CCOC(=O)Nc1cccc(C(=O)O)c1", "Potency": "inconclusive [activator, partial curve]"}
{"smiles": "Cc1ccc(N=Nc2cc(C)ccc2O)c(C)c1", "Potency": "inconclusive [activator, full curve]"}
{"smiles": "CC(=O)c1ccc(Oc2ncnc3sccc23)cc1", "Potency": "inconclusive [activator, partial curve]"}
{"smiles": "Cc1cc(C)n(-c2nc(-c3ccccc3)cs2)n1", "Potency": "inconclusive [activator, single point]"}
{"smiles": "COc1ccccc1C(=O)NCCC(=O)Nc1ccncc1", "activation, negative = inhibition": "inactive: -1.26%"}
{"smiles": "Cc1ccc(Nc2nc(N)nc(CSc3nccn3C)n2)c(C)c1", "Potency": "inconclusive [activator, single point]"}
{"smiles": "O=C(N/N=C/c1c[nH]c2ccccc12)c1ccn[nH]1", "Potency": "inconclusive [activator, single point]"}
{"smiles": "CC(=O)n1nc(-c2ccc(C)cc2)nc1NCc1ccc(F)cc1", "Potency": "inconclusive [activator, single point]"}
{"smiles": "Cc1ccc(C(=O)O/N=C(\\N)Cc2cccs2)c(Cl)c1", "Potency": "active: 2 µM"}
{"smiles": "COc1cccc(/C=N/NC(=O)CSc2nnc(C)n2-c2ccccc2)c1O", "activation, negative = inhibition": "inactive: -2.59%"}
{"smiles": "CC(=O)c1cc2c(cc1NC(=O)c1ccc(C)cc1)OCCO2", "activation, negative = inhibition": "inactive: 1.8%"}
{"smiles": "O=C(c1ccco1)N1CCN(C(=O)c2cn(-c3ccccc3)nc2-c2ccccc2)CC1", "activation, negative = inhibition": "inactive: 2.81%"}
{"smiles": "CCOC(=O)c1sc(NC(=O)c2ccccc2OCC)nc1C", "Potency": "inconclusive [activator, full curve, poor fit]"}
{"smiles": "CC(C)(C)C(=O)OCc1nc(-c2ccc(F)cc2)cs1", "Potency": "active: 2.51 µM"}
{"smiles": "CN(C)c1cccc(C(=O)NNC(=S)NC2CC3CCC2C3)c1", "note": "(centres undefined)", "Potency": "inconclusive [activator, partial curve]"}
{"smiles": "C/C(=N\\NC(=O)c1n[nH]c2c1CCC2)c1ccco1", "Potency": "active: 0.501 µM"}
{"smiles": "Cc1ccc(NC(=O)Nc2ccc3c(c2)nnn3C)cc1C", "Potency": "inconclusive [activator, full curve]"}
{"smiles": "COc1ccc(OCC(=O)Nc2ccc(NC(=O)c3cccs3)cc2)cc1", "activation, negative = inhibition": "inactive: 2.75%"}
{"smiles": "c1ccc(OCc2nc(-c3ccccc3)no2)cc1", "Potency": "inconclusive [activator, partial curve]"}
{"smiles": "CC(C)(C)Nc1nc(Cl)nc(Nc2ccccc2)n1", "Potency": "inconclusive [activator, partial curve]"}
{"smiles": "O=C1/C(=C/c2cccs2)SC(=S)N1CCCC(=O)N(CCO)c1ccccc1", "activation, negative = inhibition": "inactive: -1.04%"}
{"smiles": "Nc1cccc(-c2nc3ccccc3s2)c1", "Potency": "active: 3.98 µM"}
{"smiles": "CC(=O)Nc1cccc(-c2csc(Nc3cc(C)ccn3)n2)c1", "Potency": "active: 1.26 µM"}
{"smiles": "CCCCCN1CC(O)=C(c2nc3ccccc3[nH]2)C1=N", "Potency": "inconclusive [activator, partial curve]"}
{"smiles": "Nc1cc(Nc2ccc(Br)cc2)nc(N)n1", "Potency": "inconclusive [activator, partial curve]"}
{"smiles": "CCOC(=O)c1cnc(-c2ccccc2)nc1N", "Potency": "active: 2 µM"}
{"smiles": "Cc1ccc2nc(-c3ccc(NC(=O)CSc4ccccc4)cc3)[nH]c2c1", "Potency": "active: 2.51 µM"}
{"smiles": "CSc1ccc(C(=O)N2CCc3ccc(NC(=O)c4ccccn4)cc3C2)cc1", "Potency": "inconclusive [activator, partial curve]"}
{"smiles": "COc1ccc(C(=O)Nc2cc(Cl)cc(Cl)c2)c(OC)n1", "Potency": "inconclusive [activator, partial curve]"}
{"smiles": "Cc1ccccc1NC(=O)CCOc1ccccc1", "Potency": "inconclusive [activator, single point]"}
{"smiles": "CN(C)C(=O)COC(=O)/C=C/c1cn(-c2ccccc2)nc1-c1cccs1", "activation, negative = inhibition": "inactive: 0.453%"}
{"smiles": "Cc1cc(NC(=O)CSc2ccc(-c3ccc(Br)cc3)nn2)no1", "Potency": "inconclusive [activator, partial curve]"}
{"smiles": "CCOc1cccc(C(=O)Nc2ccc(N(CC)CC)cc2)c1", "activation, negative = inhibition": "inactive: 7.29%"}
{"smiles": "O=C(CNC(=O)C1CCCCC1)Nc1ccc(Cl)cc1", "activation, negative = inhibition": "inactive: 2.57%"}
{"smiles": "Clc1ccc(-c2nn3cnnc3s2)c(Cl)c1", "activation, negative = inhibition": "inactive: -2.18%"}
{"smiles": "COc1cccc(-n2c(SCC(=O)NCCC3=CCCCC3)nc3n[nH]c(C)c3c2=N)c1", "activation, negative = inhibition": "inactive: -0.0274%"}
{"smiles": "N#Cc1ccccc1OCC(=O)NC(=O)NC1CCS(=O)(=O)C1", "note": "(centres undefined)", "Potency": "inconclusive [activator, single point]"}
{"smiles": "COc1ccc(OC(=O)CCc2c[nH]c3ccccc23)cc1", "activation, negative = inhibition": "inactive: -2.37%"}
{"smiles": "Cc1ccccc1CNC(=O)Nc1ccc(Cl)cc1", "Potency": "inconclusive [activator, partial curve]"}
{"smiles": "CCS(=O)(=O)c1ccc(O)c(NC(=O)COc2ccc(Br)cc2)c1", "activation, negative = inhibition": "inactive: -4.05%"}
{"smiles": "c1ccc(CSc2ccc(-c3cccnc3)nn2)cc1", "Potency": "inconclusive [activator, partial curve]"}
{"smiles": "CCCCCCN(C(=O)CCCCCN1C(=O)NC(c2ccc(C3CCCCC3)cc2)C(C(=O)OCc2ccccc2)=C1C)C(C(=O)NCCCC)c1ccc(OCC(=O)OC)c(C(=O)OC)c1", "note": "(centres undefined)", "activation, negative = inhibition": "inactive: -8.58%"}
{"smiles": "CN(C)C(/C=C/Nc1cccc([N+](=O)[O-])c1)=C(C#N)C#N", "activation, negative = inhibition": "inactive: 11.7%"}
{"smiles": "Nc1c(C(=O)N/N=C/c2ccc(Cl)cc2)cnn1-c1ccccc1", "Potency": "inconclusive [activator, partial curve]"}
{"smiles": "CCOc1ccc(CN(CC)C(=O)Cc2c[nH]c3ccccc23)cc1OC", "activation, negative = inhibition": "inactive: -3.73%"}
{"smiles": "COC(CNC(=O)c1ccc(CS(=O)(=O)c2ccc(Br)cc2)o1)OC", "activation, negative = inhibition": "inactive: -3.7%"}
{"smiles": "Cc1ccc(CSc2nc3[nH]ncc3c(=O)[nH]2)cc1", "Potency": "inconclusive [activator, single point]"}
{"smiles": "Cc1cc2oc(C(=O)Nc3cccnc3)c(C)c2cc1C", "Potency": "inconclusive [activator, single point]"}
{"smiles": "C/C(=N\\NC(=O)c1ccc(Br)cc1)c1ccccc1", "Potency": "active: 1.26 µM"}
{"smiles": "CCN(Cc1ccc(OC)c(F)c1)C(=O)c1oc2ccccc2c1COC", "Potency": "inconclusive [activator, partial curve]"}
